According to the supplement of paper PMC5499739:
Whole data set: some 16,000 sequences, median “Z-score” near -0.37, cut for the highest 2% near 3.2. This is one part of the list.

Each sequence was assayed on RBM10 RRM1-ZnF (GST-tagged construct) (assay: RNAcompete 7-mer binding Z-score; higher = stronger binding preference).
Experimental: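 RNAcompete: 20 pmol GST-tagged RBM10 RNA-binding constructs were incubated with a designed RNA pool of about 241,000 sequences up to 41 nt (1.5 nmol) on glutathione beads for 30 min at 4 °C and washed. Bound RNAs were identified by microarray hybridisation. Each RNA 7-mer is scored by a one-sided Z-score of its enrichment, computed over probes that contain the 7-mer within longer pool sequences.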

Sequence	RNAcompete 7-mer binding Z-score
GUACGAG	0.582
UUUAUUG	-0.568
UGAUUAA	-0.158
AAGCCAA	-0.405
AUGGUAU	1.14
GAAACAG	0.865
UAUCGAG	0.0593
AACCCGU	-0.87
GUUGGAA	1.84
CUGCUUA	-0.72
GAACCCA	-0.646
GAUUCGU	-0.402
CGACGCU	-0.642
GAAUCUC	-0.662
CCAUUCU	-0.899
ACGCUUG	-0.675
GUUACUA	-0.253
GUACGGU	1.21
AUACCUG	-0.642
AAUGAAA	-0.288
AUAUACC	-0.636
CAGCCCG	-0.461
GACUGCC	-0.717

Sequence	RNAcompete 7-mer binding Z-score
UUCCUAC	-0.824
UGGCCUA	-0.149
CGACGUC	-0.604
CGCUAUG	-0.246
CGACCAC	-0.454
UAGAUUG	0.128
AAUCUCC	-0.811
AGCUCCU	-0.665
GCAUUUA	-0.587
CUGUCUU	-0.889
CCUACUA	-0.85
GGAGAAA	1.68
GAAUAGA	0.777
GACGAAG	1.45
CCUAAAG	-0.444
AUCAUAU	-0.474
ACAUUAU	-0.633
CUAUAAU	-0.727
UGCGGUA	0.504
ACAAGUG	0.254
GUCACAC	-0.171
AGGUUCC	-0.197
AAUGUCU	-0.639

Sequence	RNAcompete 7-mer binding Z-score
CGAGAUC	-0.259
ACCUCAG	-0.62
CCGAUUA	-0.591
AGAUCGU	-0.438
GCGUAAG	0.534
AAUUAAG	0.0203
ACCGAUC	-0.756
GACUAUU	-0.776
AAUCACG	-0.386
UGCACAG	-0.0122
UCCGUGG	0.332
AGCUCAG	-0.428
GCAGUGA	0.179
GUGUACG	1.1
AAGCAUG	-0.035
GCAGGUG	1.92
CGGAAAG	1.84
GCUUAGU	-0.178
CGCGAAC	-0.438
ACAUCGG	0.137
AAAGAAU	-0.0382
CUUAGUU	-0.526
UUUUGAC	-0.893

Sequence	RNAcompete 7-mer binding Z-score
UUUUGGG	1.35
UUCAUUU	-0.902
UUCACUU	-0.805
UAAAGGC	0.472
UACCGUA	-0.565
UCAUGAA	-0.509
UUUUCUU	-0.772
CCCUCCG	-0.373
UAAAUUC	-0.639
CACAGGA	0.303
GCGCGUG	0.712
UGAACAA	-0.155
CUUUCGA	-0.75
CCCGCGA	-0.75
UCGCAUG	-0.347
UAAAGUC	-0.457
UCGGCUA	-0.262
AUUCCUU	-0.873
AGUCAGA	-0.0122
CUCUCAA	-0.655
GCGUCGA	-0.158
GGUUGUA	1.12
ACUUAUU	-0.633

Sequence	RNAcompete 7-mer binding Z-score
UACAAAA	-0.444
GGAUGUC	0.897
CCUAUAA	-0.646
CGGGCAU	0.66
GCGCGAA	-0.331
AGUAAAC	-0.22
GCGACCG	-0.168
GAGAUGU	0.361
UCCCGUU	-0.75
GAGCACU	-0.422
UCCGCCA	-0.714
AAGUCCC	-0.646
ACUUGGC	-0.565
UAUUAUG	-0.0869
UCGAAAU	-0.685
GCGUUCC	-0.558
GCGCAUG	0.166
CAAUACG	-0.334
GUAUUGC	-0.321
CAAGAUG	-0.0479
CAAAUCC	-0.857
UCGAGUA	-0.321
CGUCUAG	-0.519

Sequence	RNAcompete 7-mer binding Z-score
GCACAAC	-0.461
ACAUAAU	-0.604
GGAUUUA	0.621
UAGGAUU	0.868
CCAACAU	-0.652
CCAGAUG	-0.435
GGCCGUA	-0.246
UGUAUAA	-0.259
GCCACAG	-0.184
GUGCAAA	0.144
UUAGCAU	-0.418
UCUACCU	-0.909
UGCCUAA	-0.759
CCCGUUU	-0.958
GGUAAAU	1.25
GUCAAAA	-0.347
CGUGCCU	-0.681
ACCCACA	-0.636
AUAGUGU	0.0625
ACCAAUU	-0.733
GCGCGAU	-0.0155
GGAGCGA	2.71
AGUUGUU	-0.376

Sequence	RNAcompete 7-mer binding Z-score
CCAGCCG	-0.542
AUUUGAG	0.0983
CCCUAAA	-0.587
CGGCUGC	0.134
CUACUUC	-0.912
AUCGCAA	-0.526
UACAGGU	0.881
GCUGGCG	0.521
UGGAGCU	0.849
GAUGUCU	-0.428
GUAACUU	-0.392
CCCUUCU	-0.675
CCGUACG	-0.513
GUCCGAC	-0.662
AGUCCCU	-0.711
CCUAGUA	-0.431
UUCACCA	-0.86
AUCAAGC	-0.626
GCUUAUG	-0.233
ACUUUGG	-0.35
CAGACGA	0.27
UAAAGAG	0.319
UAUCGCG	-0.383

Sequence	RNAcompete 7-mer binding Z-score
UUUGCGG	0.131
UUGGGUC	1.04
CGGUCCA	-0.633
GAUCUGA	-0.318
CACCGAG	-0.113
UACAAUG	-0.347
UAGGUUG	2.09
UUUGUGG	1.35
CUGUUAA	-0.779
CGCGAAA	-0.415
CCGCCGU	-0.519
UUGCACG	-0.136
GUACUUC	-0.74
AGGAUGG	3.77
CCUCUGA	-0.789
GACGCGG	0.755
CACCAGG	-0.00571
AGCUACG	-0.113
GUUAGGU	1.86
UGAGUGU	0.413
UCCAUUA	-0.75
GGACAUC	0.267
UACCGUU	-0.714
